Data: PubChem BioAssay (Tox21)
Inconclusive results, whose numbers are uncertain, are shown with a selection of clear calls. For part of these data: Potencies of inconclusive entries are doubtful fits and often do not repeat. The source made the active and inactive calls. Unless noted, calls come from the whole dose curve; as a rule, active = well fitted curve in the direction sought with a large enough effect in the repeat runs; inconclusive = weak or mixed curves; inactive = no such curve, though single readings can be large; an effect the other way counts as inactive or inconclusive.

What was measured:
[1] = qHTS assay for small molecule agonists of the p53 signaling pathway (AID 651631; calls by dose curve; note: % is set by controls: 0 for no effect and ±100 for the full control effect; nearly all actives have a fitted effect of over 15% in size); details: HCT-116 p53RE-bla reporter, beta-lactamase FRET ratio, 16 h; activation: at 73.3 µM (top of the series) unless noted
Summary of the method: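 Beta-lactamase reporter activity under p53 response elements was quantified in HCT-116 cells by FRET fluorescence, following 16 h incubation with test compounds at 37 °C and 2 h substrate development at room temperature.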

[2] = qHTS assay for small molecule disruptors of the mitochondrial membrane potential (AID 720635); details: HepG2 mitochondrial membrane potential, Mito-MPS dye ratio; ratio activity, negative = MMP loss: at 83.2 µM (top of the series) unless noted; note: potency is the fitted concentration of half-maximal effect
Summary of the method: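 Mitochondrial membrane potential tracked with Mito-MPS dye, red aggregates (ex 540/em 590 nm) against green monomers (ex 490/em 535 nm). Compound treatment 1 hr at 37C, dye 30 min in HepG2.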

[3] = qHTS assay for identifying genotoxic compounds that show differential cytotoxicity against isogenic chicken DT40 cell lines with known DNA damage response pathways - Rev3 mutant cell line (AID 743014); details: chicken DT40 Rev3-/- viability, CellTiter-Glo, 40 h; activity, negative = cytotoxicity: at 68.4 µM (top of the series) unless noted; note: potency is the fitted concentration of half-maximal effect; nearly all actives have a fitted effect of over 55% in size
[4] = target: Peroxisome proliferator-activated receptor gamma (Homo sapiens) (UniProt P37231); experiment: qHTS assay to identify small molecule antagonists of the peroxisome proliferator-activated receptor gamma (PPARg) signaling pathway (AID 743191; calls by dose curve; note: nearly all actives have a fitted effect of over 30% in size; note: potency is the fitted concentration of half-maximal effect); details: HEK293H PPARg-UAS-bla, beta-lactamase ratio, antagonist, 17 h; ratio activity, negative = inhibition: at 62.6 µM (top of the series) unless noted
Summary of the method: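 Beta-lactamase reporter under UAS control in HEK293H PPARg-bla cells; compound treatment 17 h at 37C. Read-out: fluorescence intensity after 1 h room-temperature incubation with LiveBLAzer B/G FRET substrate.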

[5] = qHTS assay for small molecule agonists of the antioxidant response element (ARE) signaling pathway (AID 743202; active = well fitted activation curve with a large enough effect in the signal ratio in the repeat runs, not every such curve was filed as active; inconclusive = weak or mixed curves, or effect the other way; inactive = no such curve, though single readings can be large or run the other way; the % refers to the signal ratio; note: % is set by controls: 0 for no effect and ±100 for the full control effect); details: HepG2 ARE-bla reporter, beta-lactamase FRET, 16 h; activation: at 73.3 µM (top of the series) unless noted
Summary of the method: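 An ARE-responsive beta-lactamase gene stably integrated in HepG2 cells serves as reporter. After 5 h plating and 16 h compound incubation at 37 C, fluorescence of the B/G FRET substrate was measured.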

[6] = target: Vitamin D3 receptor (Homo sapiens) (UniProt P11473); experiment: qHTS assay to identify small molecule antagonists of the vitamin D receptor (VDR) signaling pathway (AID 743223; active = well fitted inhibition curve with a large enough effect in the signal ratio in the repeat runs, not every such curve was filed as active; inconclusive = weak or mixed curves, or effect the other way; inactive = no such curve, though single readings can be large or run the other way; the % refers to the signal ratio; note: % is set by controls: 0 for no effect and ±100 for the full control effect); details: VDR-UAS-bla HEK293T, beta-lactamase FRET ratio, 16 h; activity change, negative = inhibition: at 61 µM (top of the series) unless noted
Summary of the method: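 Inhibition of agonist-driven VDR signalling is scored in VDR-bla cells: 3 nM final 1alpha,25-dihydroxyvitamin D3 plus compound, 16 h at 37C, then beta-lactamase detection by FRET substrate fluorescence after 2 h.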

[7] = qHTS assay to identify small molecule antagonists of the retinoic acid receptor (RAR) signaling pathway (AID 1159552; note: nearly all actives have a fitted effect of over 50% in size; note: potency is the fitted concentration of half-maximal effect)
Summary of the method: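 Test chemicals and DMSO controls were pin-transferred onto C3RL4 cells a day after seeding; retinol (1 uM final) followed at once. Luminescent reporter output was quantified after 6 hr of co-incubation and 30 min with detection reagent.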

[8] = target: Progesterone receptor (Homo sapiens) (UniProt P06401); experiment: qHTS assay to identify small molecule antagonists of the progesterone receptor (PR) signaling pathway (AID 1346795; active = well fitted inhibition curve with a large enough effect in the signal ratio in the repeat runs, not every such curve was filed as active; inconclusive = weak or mixed curves; the % refers to the signal ratio; note: % is set by controls: 0 for no effect and ±100 for the full control effect); details: PR-UAS-bla HEK293T, beta-lactamase FRET ratio, 16 h; activity change, negative = inhibition: at 92.4 µM (top of the series) unless noted
Summary of the method: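 Stimulus R5020 at 1 nM final; cells HEK293T PR-UAS-bla; medium with 2% charcoal-stripped FBS; compound exposure 16 hr at 37C, 5% CO2; detection by FRET beta-lactamase substrate, 2 hr, room temperature.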

[9] = qHTS assay to identify small molecule agonists of the progesterone receptor (PR) signaling pathway - cell viability counter screen (AID 1346799; calls by dose curve; note: nearly all actives have a fitted effect of over 45% in size; note: potency is the fitted concentration of half-maximal effect)
Summary of the method: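 Multiplexed viability read: CellTiter-Glo luminescence, 30 min RT, following LiveBLAzer FRET measurement on PR-UAS-bla HEK293T cells exposed to compounds 16 hr.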

[10] = target: Cytochrome P450 2C19 (Homo sapiens) (UniProt P33261); experiment: Cytochrome P450 Family 2 Subfamily C Member 19 (CYP2C19) small molecule antagonists: luciferase reporter qHTS assay (AID 1671197); note: nearly all actives have a fitted effect of over 65% in size; note: potency is the fitted concentration of half-maximal effect
Summary of the method: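 CYP2C19 P450-Glo, 1536-well qHTS. Cpd + enzyme/proluciferin substrate 10 min RT; + NADPH regen, 37C 1 h; stop with luciferin detection reagent, 20 min RT, luminescence (RLU). Pos ctrl ketoconazole.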

[11] = qHTS assay for identifying genotoxic compounds that show differential cytotoxicity against isogenic chicken DT40 cell lines with known DNA damage response pathways - wild type cell line (AID 743012); details: DT40 wild type chicken cells viability, CellTiter-Glo, 40 h; activity change, negative = cytotoxicity: at 68.4 µM (top of the series) unless noted; note: nearly all actives have a fitted effect of over 60% in size; note: potency is the fitted concentration of half-maximal effect
Summary of the method: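 Quantitative HTS on parental DT40 cells: 40 h compound treatment at 37 C/5% CO2, with viability then determined by CellTiter-Glo luminescence. Values serve as the DNA repair-proficient reference for differential cytotoxicity.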

[12] = qHTS assay to identify small molecule antagonists of the thyroid receptor (TR) signaling pathway - cell viability counter screen (AID 743064); details: GH3.TRE-Luc viability, CellTiter-Fluor, 24 h; activity change, negative = cytotoxic: at 70.3 µM (top of the series) unless noted; note: potency is the fitted concentration of half-maximal effect; nearly all actives have a fitted effect of over 50% in size
Summary of the method: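 CellTiter-Fluor readout, 30 min at 37 °C/5% CO2, following 23.5 h incubation of GH3.TRE-Luc cells with test compound and 1 nM T3 (final).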

[13] = qHTS assay to identify small molecule agonists of the retinoic acid receptor (RAR) signaling pathway (AID 1159553); details: C3RL4 RARE luciferase reporter, agonist, 6 h; activation: at 73.3 µM (top of the series) unless noted; note: % is set by controls: 0 for no effect and ±100 for the full control effect
Summary of the method: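 Cell line C3RL4, RARE luciferase reporter. Treatment: compounds in DMSO, 6 hr, 37 C, 5% CO2, after overnight plating. Detection: luminescence, 30 min RT after reagent.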

[14] = target: Estrogen receptor beta (Homo sapiens) (UniProt Q92731); experiment: qHTS assay to identify small molecule antagonists of the estrogen receptor beta (ER-beta) signaling pathway (AID 1259378; active = well fitted inhibition curve with a large enough effect in the signal ratio in the repeat runs, not every such curve was filed as active; inconclusive = weak or mixed curves, or effect the other way; inactive = no such curve, though single readings can be large or run the other way; the % refers to the signal ratio; note: potency is the fitted concentration of half-maximal effect); details: ER-beta-UAS-bla HEK293T, beta-lactamase FRET ratio, 16 h; activity, negative = inhibition: at 92.4 µM (top of the series) unless noted
Summary of the method: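 Antagonist mode: compounds added to beta-lactamase reporter HEK293T ER-beta-UAS cells stimulated with E2 (1nM final), 16 hr at 37C. LiveBLAzer B/G FRET substrate, 2 hours room temperature, fluorescence read-out.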

[15] = target: Cytochrome P450 2D6 (Homo sapiens) (UniProt P10635); experiment: Cytochrome P450 Family 2 Subfamily D Member 6 (CYP2D6) small molecule antagonists: luciferase reporter qHTS assay (AID 1671196); note: potency is the fitted concentration of half-maximal effect; nearly all actives have a fitted effect of over 50% in size
Summary of the method: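 Inhibition of CYP2D6 was gauged by loss of luminescence, since light produced tracks the luciferin generated from a proluciferin substrate. A 10 min room-temperature preincubation preceded 1 h NADPH-supported turnover.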

[16] = target: Glucocorticoid receptor (Homo sapiens) (UniProt P04150); experiment: qHTS assay to identify small molecule antagonists of the glucocorticoid receptor (GR) signaling pathway (AID 720692; active = well fitted inhibition curve with a large enough effect in the signal ratio in the repeat runs, not every such curve was filed as active; inconclusive = weak or mixed curves, or effect the other way; inactive = no such curve, though single readings can be large or run the other way; the % refers to the signal ratio; note: % is set by controls: 0 for no effect and ±100 for the full control effect); details: GR-bla HeLa, beta-lactamase FRET ratio, dexamethasone-stimulated, 18 h; activity change, negative = inhibition: at 58.5 µM (top of the series) unless noted
Summary of the method: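 Fluorescence from cleaved LiveBLAzer B/G FRET substrate reports GRE-driven beta-lactamase in HeLa cells; compounds are tested against 5 nM dexamethasone (final) over 18 h at 37 C, substrate incubation 2 h at room temperature.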

[17] = target: Estrogen receptor (Homo sapiens) (UniProt P03372); experiment: qHTS assay to identify small molecule agonists of the estrogen receptor alpha (ER-alpha) signaling pathway using the BG1 cell line (AID 743079); details: BG1Luc4E2 cells, ERE-luciferase agonist, 22 h; activation: at 70.3 µM (top of the series) unless noted; note: potency is the fitted concentration of half-maximal effect; nearly all actives have a fitted effect of over 20% in size
[18] = target: Cytochrome P450 1A2 (Homo sapiens) (UniProt P05177); experiment: Cytochrome P450 Family 1 Subfamily A Member 2 (CYP1A2) small molecule antagonists: luciferase reporter qHTS assay (AID 1671199); note: % is set by controls: 0 for no effect and ±100 for the full control effect; nearly all actives have a fitted effect of over 50% in size
Summary of the method: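 Signal from luciferin formed by CYP1A2 from a proluciferin substrate is read as luminescence, expressed in relative luminescence units. Compounds sit with enzyme 10 min, NADPH-driven reaction runs 1 h, all at room temperature.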
Tags give direction and shape of the fitted curve or compound fluorescence and quenching.

Chain of UniProt P04150 (P04150 whole entry, looked up): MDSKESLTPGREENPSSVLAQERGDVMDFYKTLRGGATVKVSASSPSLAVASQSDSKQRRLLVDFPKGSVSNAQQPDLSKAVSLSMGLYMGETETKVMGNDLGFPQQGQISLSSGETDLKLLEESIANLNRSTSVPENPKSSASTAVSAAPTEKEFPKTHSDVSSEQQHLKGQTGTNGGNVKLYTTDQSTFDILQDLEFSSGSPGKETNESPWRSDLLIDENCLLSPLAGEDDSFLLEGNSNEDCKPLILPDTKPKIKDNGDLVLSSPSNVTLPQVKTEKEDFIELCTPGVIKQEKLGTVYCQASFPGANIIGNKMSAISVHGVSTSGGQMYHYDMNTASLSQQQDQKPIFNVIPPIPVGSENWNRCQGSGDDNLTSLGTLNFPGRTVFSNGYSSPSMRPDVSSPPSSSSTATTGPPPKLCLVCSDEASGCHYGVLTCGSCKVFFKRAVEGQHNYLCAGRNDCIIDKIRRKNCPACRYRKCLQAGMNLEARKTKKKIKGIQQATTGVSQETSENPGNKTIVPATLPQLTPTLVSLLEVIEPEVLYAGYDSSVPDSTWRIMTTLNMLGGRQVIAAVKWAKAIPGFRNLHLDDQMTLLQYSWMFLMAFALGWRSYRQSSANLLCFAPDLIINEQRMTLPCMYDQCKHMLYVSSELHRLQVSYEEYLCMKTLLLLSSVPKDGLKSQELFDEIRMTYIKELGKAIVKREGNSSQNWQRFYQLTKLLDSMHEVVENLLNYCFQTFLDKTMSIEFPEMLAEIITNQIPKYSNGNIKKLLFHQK
Chain of UniProt P37231 (P37231 whole entry, looked up): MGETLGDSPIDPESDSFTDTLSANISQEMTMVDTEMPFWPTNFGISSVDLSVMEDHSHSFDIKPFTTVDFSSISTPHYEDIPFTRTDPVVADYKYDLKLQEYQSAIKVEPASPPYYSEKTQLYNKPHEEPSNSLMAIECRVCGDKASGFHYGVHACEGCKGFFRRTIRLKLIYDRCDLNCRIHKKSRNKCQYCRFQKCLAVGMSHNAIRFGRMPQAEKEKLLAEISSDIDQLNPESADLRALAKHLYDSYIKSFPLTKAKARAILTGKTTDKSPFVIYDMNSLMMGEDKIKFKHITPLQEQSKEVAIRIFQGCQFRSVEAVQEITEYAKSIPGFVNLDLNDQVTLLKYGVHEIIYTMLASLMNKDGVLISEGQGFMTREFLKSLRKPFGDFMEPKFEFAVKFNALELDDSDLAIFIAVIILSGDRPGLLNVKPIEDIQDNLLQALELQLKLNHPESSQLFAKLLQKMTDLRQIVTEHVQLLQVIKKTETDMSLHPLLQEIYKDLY
Chain of UniProt P11473 (P11473 whole entry, looked up): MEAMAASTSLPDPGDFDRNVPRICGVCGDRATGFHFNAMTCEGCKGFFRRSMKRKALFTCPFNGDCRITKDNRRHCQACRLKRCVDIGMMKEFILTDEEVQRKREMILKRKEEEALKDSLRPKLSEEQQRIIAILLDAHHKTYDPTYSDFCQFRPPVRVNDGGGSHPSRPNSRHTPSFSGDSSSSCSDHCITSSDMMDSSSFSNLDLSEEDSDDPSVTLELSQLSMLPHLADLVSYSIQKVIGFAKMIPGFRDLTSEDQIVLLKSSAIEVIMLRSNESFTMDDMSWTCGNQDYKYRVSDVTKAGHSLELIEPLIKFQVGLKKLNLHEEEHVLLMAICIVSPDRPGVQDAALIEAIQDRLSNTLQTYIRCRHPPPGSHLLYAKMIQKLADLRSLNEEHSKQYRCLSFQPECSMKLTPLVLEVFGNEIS
Chain of UniProt P06401 (P06401 whole entry, looked up): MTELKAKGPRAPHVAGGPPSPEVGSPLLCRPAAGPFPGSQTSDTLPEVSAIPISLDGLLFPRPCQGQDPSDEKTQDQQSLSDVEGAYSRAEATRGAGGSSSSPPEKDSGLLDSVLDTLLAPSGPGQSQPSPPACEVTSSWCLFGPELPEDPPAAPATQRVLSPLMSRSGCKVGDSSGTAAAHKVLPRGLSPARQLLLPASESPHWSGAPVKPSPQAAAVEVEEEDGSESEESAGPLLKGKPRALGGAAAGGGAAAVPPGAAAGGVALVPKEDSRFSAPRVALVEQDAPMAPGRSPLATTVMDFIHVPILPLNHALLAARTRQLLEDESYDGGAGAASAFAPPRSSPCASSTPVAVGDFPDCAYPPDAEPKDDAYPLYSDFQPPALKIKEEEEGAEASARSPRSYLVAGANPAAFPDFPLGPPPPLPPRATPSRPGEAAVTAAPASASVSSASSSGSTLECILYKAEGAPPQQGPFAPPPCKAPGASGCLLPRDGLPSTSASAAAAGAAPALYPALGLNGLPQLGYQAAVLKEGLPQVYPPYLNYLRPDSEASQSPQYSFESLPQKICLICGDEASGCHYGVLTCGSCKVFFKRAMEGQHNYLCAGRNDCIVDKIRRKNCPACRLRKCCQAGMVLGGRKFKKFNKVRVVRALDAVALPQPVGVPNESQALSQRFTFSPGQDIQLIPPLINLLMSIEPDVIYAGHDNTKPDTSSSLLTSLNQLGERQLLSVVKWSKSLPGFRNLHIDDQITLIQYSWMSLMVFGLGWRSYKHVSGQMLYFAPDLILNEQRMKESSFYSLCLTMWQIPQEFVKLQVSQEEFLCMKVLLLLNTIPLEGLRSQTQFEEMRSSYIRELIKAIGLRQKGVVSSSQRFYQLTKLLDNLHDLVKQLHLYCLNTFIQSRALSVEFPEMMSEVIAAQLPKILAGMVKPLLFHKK
Chain of UniProt P10635 (P10635 whole entry, looked up): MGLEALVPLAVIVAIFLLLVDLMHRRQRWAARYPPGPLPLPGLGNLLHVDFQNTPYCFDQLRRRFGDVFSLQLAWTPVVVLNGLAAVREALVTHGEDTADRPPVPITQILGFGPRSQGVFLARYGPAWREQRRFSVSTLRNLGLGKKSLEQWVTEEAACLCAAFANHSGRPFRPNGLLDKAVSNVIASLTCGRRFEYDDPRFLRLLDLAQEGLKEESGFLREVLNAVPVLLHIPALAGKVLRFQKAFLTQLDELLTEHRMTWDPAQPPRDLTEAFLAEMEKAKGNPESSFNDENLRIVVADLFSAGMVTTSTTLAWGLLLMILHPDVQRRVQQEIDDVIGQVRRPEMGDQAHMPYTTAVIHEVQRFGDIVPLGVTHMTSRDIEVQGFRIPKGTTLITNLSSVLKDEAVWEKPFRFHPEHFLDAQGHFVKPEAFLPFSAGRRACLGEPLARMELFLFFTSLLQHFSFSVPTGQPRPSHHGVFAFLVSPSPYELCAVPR
Chain of UniProt P33261 (P33261 whole entry, looked up): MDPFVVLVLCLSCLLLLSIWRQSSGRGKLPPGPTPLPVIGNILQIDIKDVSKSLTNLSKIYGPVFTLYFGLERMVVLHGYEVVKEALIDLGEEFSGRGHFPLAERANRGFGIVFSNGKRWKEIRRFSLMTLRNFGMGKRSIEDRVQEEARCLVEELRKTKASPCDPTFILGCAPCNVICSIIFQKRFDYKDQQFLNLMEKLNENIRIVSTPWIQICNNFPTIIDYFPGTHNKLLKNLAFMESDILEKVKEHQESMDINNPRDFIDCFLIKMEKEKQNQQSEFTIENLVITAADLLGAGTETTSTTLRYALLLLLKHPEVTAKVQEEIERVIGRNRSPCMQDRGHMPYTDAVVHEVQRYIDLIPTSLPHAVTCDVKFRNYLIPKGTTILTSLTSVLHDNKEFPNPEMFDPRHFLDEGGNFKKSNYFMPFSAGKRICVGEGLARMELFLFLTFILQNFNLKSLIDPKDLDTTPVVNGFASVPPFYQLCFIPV
Chain of UniProt Q92731 (Q92731 whole entry, looked up): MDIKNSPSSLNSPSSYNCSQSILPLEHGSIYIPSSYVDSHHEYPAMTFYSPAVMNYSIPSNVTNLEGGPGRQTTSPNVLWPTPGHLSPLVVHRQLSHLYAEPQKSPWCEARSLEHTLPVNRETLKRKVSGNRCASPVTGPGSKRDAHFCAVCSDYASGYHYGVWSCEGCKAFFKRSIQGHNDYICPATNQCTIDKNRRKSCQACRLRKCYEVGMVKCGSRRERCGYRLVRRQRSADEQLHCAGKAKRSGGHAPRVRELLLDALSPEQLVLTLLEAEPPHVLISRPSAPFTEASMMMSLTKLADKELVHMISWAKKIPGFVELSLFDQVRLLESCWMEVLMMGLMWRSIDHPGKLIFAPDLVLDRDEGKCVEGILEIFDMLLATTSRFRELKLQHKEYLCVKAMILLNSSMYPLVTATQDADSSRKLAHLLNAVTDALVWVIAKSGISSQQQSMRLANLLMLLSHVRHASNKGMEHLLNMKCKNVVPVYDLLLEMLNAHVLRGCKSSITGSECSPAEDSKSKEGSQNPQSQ
Chain of UniProt P03372 (P03372 whole entry, looked up): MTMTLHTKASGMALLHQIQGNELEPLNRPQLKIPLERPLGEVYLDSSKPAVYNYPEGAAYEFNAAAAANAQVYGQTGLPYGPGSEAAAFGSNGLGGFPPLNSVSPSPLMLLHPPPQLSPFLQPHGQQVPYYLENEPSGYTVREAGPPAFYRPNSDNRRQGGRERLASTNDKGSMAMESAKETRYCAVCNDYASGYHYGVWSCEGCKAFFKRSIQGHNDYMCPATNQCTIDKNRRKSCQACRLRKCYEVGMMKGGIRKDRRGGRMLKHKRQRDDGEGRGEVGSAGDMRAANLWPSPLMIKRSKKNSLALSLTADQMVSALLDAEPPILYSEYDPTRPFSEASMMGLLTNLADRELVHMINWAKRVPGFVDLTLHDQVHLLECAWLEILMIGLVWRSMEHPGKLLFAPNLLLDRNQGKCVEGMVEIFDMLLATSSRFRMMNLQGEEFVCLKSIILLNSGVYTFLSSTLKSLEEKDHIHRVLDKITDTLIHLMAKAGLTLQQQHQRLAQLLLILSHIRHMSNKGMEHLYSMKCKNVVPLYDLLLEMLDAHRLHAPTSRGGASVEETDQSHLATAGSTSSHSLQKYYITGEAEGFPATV

CCCCCCCCOC(C)=O
inconclusive: ratio activity, negative = MMP loss [2] 8.57% | Potency [3] 27.3 µM [cytotoxic, full curve] | activity change, negative = inhibition [6] 18.3% | Potency [9] 0.217 µM [cytotoxic, single point] | Potency [10] 71 µM [inhibitor, single point]
inactive: Potency [1] | Potency [4] | Potency [5] | Potency [7] | Potency [8]

OCc1cccc(Oc2ccccc2)c1
inactive: Potency [6] | Potency [7] | Potency [13]
inconclusive: Potency [2] 27.7 µM [rising, partial curve] | Potency [11] 1.96 µM [rising, full curve, poor fit] | Potency [12] 6.21 µM [rising, single point] | Potency [4] 49.8 µM [inhibitor, partial curve] | ratio activity, negative = inhibition [4] -21.3% | activation [5] 19.6% | Potency [14] 27.7 µM [rising, partial curve] | Potency [9] 78.1 µM [rising, single point] | Potency [15] 71 µM [inhibitor]

CN/C(=C\[N+](=O)[O-])NCCSCc1ccc(CN(C)C)o1
inactive: Potency [16] | Potency [7] | Potency [10]
inconclusive: ratio activity, negative = MMP loss [2] -10.8% | Potency [17] 54.5 µM [activator, partial curve] | activity, negative = inhibition [14] -3.1% [at 42.5 µM] | Potency [15] 17.4 µM [inhibitor, full curve]

CCc1cccc(CC)c1
inactive: Potency [7]

COc1cc(C(=O)NCc2ccc(OCCN(C)C)cc2)cc(OC)c1OC
inactive: Potency [11] | Potency [8] | Potency [9]
inconclusive: activity change, negative = inhibition [16] 1.83% [at 27 µM] | Potency [3] 12.7 µM [rising, partial curve, poor fit] | activation [5] -19.6% | Potency [7] 23.7 µM [inhibitor, partial curve] | Potency [15] 38.9 µM [inhibitor, partial curve, poor fit]

NCCN1CCNC1=O
inconclusive: Potency [2] 7.7 µM [activator, partial curve] | Potency [3] 30.6 µM [cytotoxic, full curve]
inactive: Potency [11] | Potency [4] | Potency [5] | Potency [8] | Potency [18]
